# Experimental data: PubChem BioAssay AID504332 (National Center for Advancing Translational Sciences (NCATS), 2011)
# In all, about 350,000 compounds went through this assay and about 31,000 (8.9%) were called active. Inconclusive means that the source gave no clear call. Such entries were picked first, then a sample of the others. The call rests on the fitted dose curve; in most records, active means well fitted inhibition curve with a large enough effect; inconclusive means small, poorly fitted or top-dose-only effect; inactive means no such curve, though single readings can be large or run the other way. Where the call is inconclusive, the potency comes from a doubtful curve fit.
# Target: Histone-lysine N-methyltransferase EHMT2 (Homo sapiens) (UniProt Q96KQ7)
# Chain of UniProt Q96KQ7 (Q96KQ7 whole entry, looked up): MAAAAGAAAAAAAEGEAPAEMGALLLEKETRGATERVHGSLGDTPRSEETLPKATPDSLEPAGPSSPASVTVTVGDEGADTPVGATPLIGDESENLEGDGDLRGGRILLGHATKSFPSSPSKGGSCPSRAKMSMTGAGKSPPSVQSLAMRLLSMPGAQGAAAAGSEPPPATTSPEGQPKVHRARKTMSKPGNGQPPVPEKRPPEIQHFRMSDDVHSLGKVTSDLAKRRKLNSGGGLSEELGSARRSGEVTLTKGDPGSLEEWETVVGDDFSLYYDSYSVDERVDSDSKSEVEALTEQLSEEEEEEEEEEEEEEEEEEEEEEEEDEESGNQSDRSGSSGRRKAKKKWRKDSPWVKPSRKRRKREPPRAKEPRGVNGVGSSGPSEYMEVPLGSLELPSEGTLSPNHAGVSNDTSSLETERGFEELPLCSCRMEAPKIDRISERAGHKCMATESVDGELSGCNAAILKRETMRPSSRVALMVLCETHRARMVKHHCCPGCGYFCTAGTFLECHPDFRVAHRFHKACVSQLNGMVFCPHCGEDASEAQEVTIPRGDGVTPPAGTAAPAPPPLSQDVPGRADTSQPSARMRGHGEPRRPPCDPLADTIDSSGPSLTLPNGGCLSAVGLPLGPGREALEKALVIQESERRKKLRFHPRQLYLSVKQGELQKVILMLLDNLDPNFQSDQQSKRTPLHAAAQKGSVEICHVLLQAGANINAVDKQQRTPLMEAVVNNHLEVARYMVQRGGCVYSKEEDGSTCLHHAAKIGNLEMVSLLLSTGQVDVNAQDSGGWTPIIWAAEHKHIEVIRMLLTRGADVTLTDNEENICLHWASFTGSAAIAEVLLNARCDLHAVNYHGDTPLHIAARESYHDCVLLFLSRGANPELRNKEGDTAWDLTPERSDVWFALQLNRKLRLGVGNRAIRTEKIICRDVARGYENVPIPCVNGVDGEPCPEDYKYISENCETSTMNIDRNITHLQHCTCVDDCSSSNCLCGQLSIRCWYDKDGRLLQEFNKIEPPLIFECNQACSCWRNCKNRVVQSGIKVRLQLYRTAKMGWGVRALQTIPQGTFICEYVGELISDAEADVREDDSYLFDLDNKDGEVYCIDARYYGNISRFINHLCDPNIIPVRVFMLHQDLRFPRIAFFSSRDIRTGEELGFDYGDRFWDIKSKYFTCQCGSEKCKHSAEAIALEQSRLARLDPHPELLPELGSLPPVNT
# Assay: qHTS Assay for Inhibitors of Histone Lysine Methyltransferase G9a; further: nearly all actives have a fitted effect of over 75% in size
# Conditions: G9a H3K9 monomethylation, AlphaScreen, 2 h; activity, negative = inhibition: at 59 µM (top of the series) unless noted
# Outline: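 Using a bead-based AlphaScreen, monomethylated H3K9 product from 2 h room-temperature reactions (G9a 20 nM, peptide 500 nM, SAM 20 uM) was detected with 0.5 ug/mL rabbit anti-H3K9me1 antibody.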
# On the % scale 0 is the no-effect control and ±100 the full control effect; potency means the concentration at half of the fitted maximal effect; tags describe the fitted curve by direction and shape.
Structure (SMILES),Potency,"activity, negative = inhibition"
O=C(CSc1nccn1Cc1ccco1)Nc1ccc(F)cc1,"inconclusive: 56.2 µM [inhibitor, single point]",
CCOC(=O)c1cc(S(=O)(=O)Nc2ccc(C)cc2Cl)[nH]n1,active: 8.91 µM,
Cc1ccc(NC(=O)CCN2CCN(CCO)CC2)cc1C,,inactive: -3.91%
NC(=O)c1ncc(C(F)(F)F)cc1Oc1ccc(C(F)(F)F)cc1,,inactive: -27.2% [at 12.7 µM]
COc1cc(Br)cc2cc(C(=O)N3CCCCC3C)c(=O)oc12 (stereo not given),,inconclusive: -70.8% [inhibitor]
CCc1nc(OCCN(C)C)c2oc3ccccc3c2n1,"inconclusive: 89.1 µM [inhibitor, single point]",
CCCCn1c(-c2csc(CC)c2)n[nH]c1=S,active: 1.78 µM,
COc1cc(C(=O)NC(=S)Nc2ccccc2[N+](=O)[O-])cc(OC)c1OC,"inconclusive: 35.5 µM [inhibitor, partial curve, poor fit]",
CCOC(=O)C1CCCN(C(=O)c2csc(-c3ccc4c(c3)CCO4)n2)C1 (stereo not given),"inconclusive: 50.1 µM [inhibitor, partial curve]",
Cc1ccc(C(=O)Nc2sc(C)c(C)c2C(=O)c2ccccc2)cc1,active: 8.91 µM,
COc1ccc(C(=O)N2CCN(c3ccc(C)cc3C)CC2)cc1OC,,inactive: -17.8% [at 102 µM]
CC(=O)N(CCc1ccccc1C)Cc1cc2cc3c(cc2[nH]c1=O)OCO3,"inconclusive: 20 µM [inhibitor, partial curve, poor fit]",
O=C(CC(c1ccco1)S(=O)(=O)c1ccccc1)c1ccccc1 (stereo not given),"inconclusive: 10 µM [inhibitor, single point]",
CN(CC(=O)Nc1ccccc1C(F)(F)F)C(=O)c1cc(-c2cccs2)nn1-c1ccccc1,,inactive: -5.02% [at 0.501 µM]
COc1cc(-c2cc(OC)c3c(C)oc(C)c3c(=O)c2)ccc1O,active: 44.7 µM,
CCOC(=O)Cc1ccc(NC(=O)N2CCC(CN3CCCCCC3)CC2)cc1,"inconclusive: 12.6 µM [inhibitor, partial curve, poor fit]",
O=C(O)CCc1ccc(-c2ccccc2)n1CC(=O)Nc1cccc(C(F)(F)F)c1,active: 44.7 µM,
CCNC(=S)Nc1cccc(S(=O)(=O)Nc2ccccc2OC)c1,"inconclusive: 20 µM [inhibitor, partial curve, poor fit]",
COc1ccccc1-c1nn2c(C3COc4ccccc4O3)nnc2s1 (stereo not given),active: 3.55 µM,
CCN(Cc1nc(-c2ccc(OC)cc2)oc1C)S(=O)(=O)c1ccc(C)cc1,"inconclusive: 11.2 µM [inhibitor, partial curve]",
